Some of the results follow.

The subject of one assay is HSkMC (human skeletal muscle cells). The experiment in a line: cytotoxicity call (relative viability < 0.9). The note with it: 10 µM.
`C[C@H](CO)N1C[C@H](C)[C@H](CN(C)S(=O)(=O)c2ccc(F)cc2)Oc2ncc(-c3ccccc3)cc2C1=O`: the cytotoxicity call was “inactive”.

Consider `CNC(=O)c1cccc(CN)c1`, for which the cytotoxicity call was “inactive”.

Turning to `C[C@@H]1CCCCO[C@H](CN(C)C)[C@H](C)CN([C@@H](C)CO)C(=O)c2cc(NS(=O)(=O)c3cn(C)cn3)ccc2O1`, the cytotoxicity call was “inactive”.

For the compound `COC(=O)c1c(C(=O)OC)c2n(c(=O)c1-c1ccccc1)[C@@H]1c3ccccc3O[C@@](COCc3ccc(OC)cc3)([C@@H]1COC(=O)c1ccccc1)N2C`, the cytotoxicity call is “inactive”.

Regarding `NCCNC1=NS(=O)(=O)c2ccccc21`, the cytotoxicity call is “inactive”.

Take `C[C@H]1CN([C@@H](C)CO)C(=O)c2cc(NS(=O)(=O)c3ccccc3)ccc2O[C@@H]1CN(C)S(C)(=O)=O`: the cytotoxicity call is “inactive”.

As to `CC(C)CC(N)=O`, the cytotoxicity call was “inactive”.

`COCC(=O)N1CC[C@]2(CC(C(=O)NCc3cnc(C)cn3)=NO2)C1`: the cytotoxicity call is “inactive”.

For the compound `O=c1[nH]cc(F)c(=O)[nH]1`, the cytotoxicity call was “inactive”.

On to `C[C@@H]1CCCCO[C@H](CN(C)C(=O)Nc2ccc(C(F)(F)F)cc2)[C@@H](C)CN([C@@H](C)CO)C(=O)c2cc(NC(=O)CCC(F)(F)F)ccc2O1`, for which the cytotoxicity call is “inactive”.

On to `CCC(=O)Nc1ccc2c(c1)OC[C@H](C)N(C(=O)CN1CCOCC1)C[C@H](C)[C@@H](OC)CN(C)C2=O`, for which the cytotoxicity call is “inactive”.

`C[C@@H]1CN([C@H](C)CO)C(=O)c2cccc(NC(=O)Nc3ccc(C(F)(F)F)cc3)c2O[C@H]1CN(C)S(C)(=O)=O`: the cytotoxicity call was “inactive”.

Consider `COc1ccc2c3c([nH]c2c1)[C@H](CO)N(Cc1ccncc1)C[C@]13CCN(CC1)Cc1ccc(cc1)-c1ccccn1`, for which the cytotoxicity call was “inactive”.

`C[C@@H]1CN([C@H](C)CO)C(=O)c2c(c3ccccc3n2C)-c2ccccc2CO[C@@H]1CN(C)C(=O)c1ccc(F)cc1`: the cytotoxicity call was “inactive”.

Regarding `Cc1ccc(S(=O)(=O)Nc2ccc3c(c2)CC(=O)N([C@@H](C)CO)C[C@@H](C)[C@H](CN(C)S(=O)(=O)c2c(C)noc2C)O3)cc1`, the cytotoxicity call is “inactive”.

Consider `COc1ccc(NC(=O)N(C)C[C@@H]2Oc3ccc(NC(=O)Nc4cccc5ccccc45)cc3CC(=O)N([C@H](C)CO)C[C@@H]2C)cc1`, for which the cytotoxicity call was “inactive”.

On to `C[C@@H]1CN([C@@H](C)CO)C(=O)c2c(c3ccccc3n2C)-c2ccccc2CO[C@@H]1CN(C)C(=O)c1ccc(F)cc1`, for which the cytotoxicity call was “inactive”.

Consider `Cc1noc(C)c1NC(=O)Nc1ccc2c(c1)CC(=O)N([C@H](C)CO)C[C@H](C)[C@H](CN(C)C(=O)Nc1ccc(C(F)(F)F)cc1)O2`, for which the cytotoxicity call was “inactive”.

Regarding `Cc1noc(C)c1NC(=O)Nc1ccc2c(c1)C(=O)N([C@@H](C)CO)C[C@@H](C)[C@@H](CN(C)C(=O)Nc1ccc3c(c1)OCO3)OCCCC[C@@H](C)O2`, the cytotoxicity call is “inactive”.

`COc1ccc(S(=O)(=O)N(C)C[C@H]2OCCCC[C@H](C)Oc3ccc(NC(=O)Nc4cccc5ccccc45)cc3C(=O)N([C@@H](C)CO)C[C@H]2C)cc1`: the cytotoxicity call is “inactive”.

For the compound `CC(C)=Cc1ccc(C#N)c(=S)[nH]1`, the cytotoxicity call is “inactive”.

In the case of `C[C@@H]1CCCCO[C@@H](CN(C)C(=O)Nc2ccc(C(F)(F)F)cc2)[C@@H](C)CN([C@H](C)CO)C(=O)c2cc(NC(=O)Nc3ccc(F)cc3)ccc2O1`, the cytotoxicity call is “inactive”.

Consider `Cn1c(CNc2ccccc2)cc(=O)n(C)c1=O`, for which the cytotoxicity call was “inactive”.

With `NNC(=O)c1ccc(CN2CCCCC2)o1`, the cytotoxicity call was “inactive”.

As for `Cc1ccc(S(=O)(=O)Nc2ccc3c(c2)CC(=O)N([C@@H](C)CO)C[C@H](C)[C@H](CN(C)S(=O)(=O)c2ccc(F)cc2)O3)cc1`, the cytotoxicity call was “inactive”.

As to `CCCC#Cc1cnc2c(c1)C(=O)N([C@H](C)CO)C[C@@H](C)[C@@H](CN(C)S(=O)(=O)c1cccc(OC)c1)O2`, the cytotoxicity call is “inactive”.

Take `C[C@H]1CCCCO[C@@H](CN(C)Cc2ccc(C(=O)O)cc2)[C@@H](C)CN([C@@H](C)CO)C(=O)c2cc(NC(=O)Nc3cccc4ccccc34)ccc2O1`: the cytotoxicity call is “inactive”.

Take `CCCCCCCCCCCCCCCC(=O)OC(C)C`: the cytotoxicity call was “inactive”.

As for `C[C@H](CO)N1C[C@H](C)[C@H](CN(C)Cc2ccc(Cl)c(Cl)c2)Oc2ccc(NS(=O)(=O)c3ccc(F)cc3)cc2CC1=O`, the cytotoxicity call was “inactive”.

Another assay has as its system HepG2. The experiment in a line: cytotoxicity call (relative viability < 0.9). The note with it: 10 µM.
Consider `Cc1ccc(S(=O)(=O)Nc2ccc3c(c2)C(=O)N([C@H](C)CO)C[C@H](C)[C@H](CN(C)C(=O)Nc2ccc4c(c2)OCO4)OCCCC[C@@H](C)O3)cc1`, for which the cytotoxicity call was “inactive”.

Consider `C[C@@H]1CN([C@@H](C)CO)C(=O)c2cc(NS(=O)(=O)c3ccccc3)ccc2O[C@@H](C)CCCCO[C@H]1CN(C)Cc1ccccc1`, for which the cytotoxicity call was “inactive”.

With `O=C(CN1CCOCC1)NCC[C@@H]1CC[C@@H](NC(=O)Cc2ccccn2)[C@H](CO)O1`, the cytotoxicity call is “inactive”.

As to `COc1ccc(S(=O)(=O)Nc2ccc3c(c2)C(=O)N([C@@H](C)CO)C[C@@H](C)[C@@H](CN(C)C(=O)Nc2ccc(F)cc2)OCCCC[C@H](C)O3)cc1`, the cytotoxicity call is “inactive”.

With `C[C@H]1CCCCO[C@@H](CN(C)Cc2ccc(C(F)(F)F)cc2)[C@@H](C)CN([C@@H](C)CO)C(=O)c2cc(NC(=O)Nc3ccc(C(F)(F)F)cc3)ccc2O1`, the cytotoxicity call was “active”.

With `COc1ccc(CN(C)C[C@@H]2Oc3ccc(NC(=O)Cn4cnnn4)cc3C(=O)N([C@H](C)CO)C[C@@H]2C)cc1`, the cytotoxicity call is “inactive”.

As for `C[C@H]1CCCCO[C@H](CN(C)CC2CC2)[C@@H](C)CN([C@@H](C)CO)C(=O)c2cc(NC(=O)CCC(F)(F)F)ccc2O1`, the cytotoxicity call was “inactive”.

As to `O=C(O)c1cccc(O)c1O`, the cytotoxicity call was “inactive”.

As for `C[C@H]1CN([C@@H](C)CO)C(=O)c2cccc(NS(=O)(=O)c3cn(C)cn3)c2O[C@H]1CN(C)Cc1ccncc1`, the cytotoxicity call was “inactive”.

Take `CCCC#Cc1cnc2c(c1)C(=O)N([C@@H](C)CO)C[C@H](C)[C@@H](CN(C)C(=O)c1ccc3c(c1)OCO3)O2`: the cytotoxicity call was “inactive”.

For the compound `C[C@@H]1CN([C@H](C)CO)C(=O)c2cc(NS(=O)(=O)c3ccc(Cl)cc3)ccc2O[C@@H]1CN(C)Cc1ccc(Oc2ccccc2)cc1`, the cytotoxicity call is “active”.

For the compound `C[C@H](CO)N1C[C@H](C)[C@H](CN(C)S(=O)(=O)c2ccc(F)cc2)Oc2ncc(-c3ccccc3)cc2C1=O`, the cytotoxicity call is “inactive”.

Take `CNC(=O)c1cccc(CN)c1`: the cytotoxicity call is “inactive”.

Regarding `C[C@@H]1CCCCO[C@H](CN(C)C)[C@H](C)CN([C@@H](C)CO)C(=O)c2cc(NS(=O)(=O)c3cn(C)cn3)ccc2O1`, the cytotoxicity call is “inactive”.

For the compound `COC(=O)c1c(C(=O)OC)c2n(c(=O)c1-c1ccccc1)[C@@H]1c3ccccc3O[C@@](COCc3ccc(OC)cc3)([C@@H]1COC(=O)c1ccccc1)N2C`, the cytotoxicity call is “inactive”.

In the case of `NCCNC1=NS(=O)(=O)c2ccccc21`, the cytotoxicity call is “inactive”.

Consider `C[C@H]1CN([C@@H](C)CO)C(=O)c2cc(NS(=O)(=O)c3ccccc3)ccc2O[C@@H]1CN(C)S(C)(=O)=O`, for which the cytotoxicity call is “active”.

For the compound `CC(C)CC(N)=O`, the cytotoxicity call is “inactive”.

Turning to `COCC(=O)N1CC[C@]2(CC(C(=O)NCc3cnc(C)cn3)=NO2)C1`, the cytotoxicity call is “inactive”.

Regarding `O=c1[nH]cc(F)c(=O)[nH]1`, the cytotoxicity call was “active”.

As to `C[C@@H]1CCCCO[C@H](CN(C)C(=O)Nc2ccc(C(F)(F)F)cc2)[C@@H](C)CN([C@@H](C)CO)C(=O)c2cc(NC(=O)CCC(F)(F)F)ccc2O1`, the cytotoxicity call was “inactive”.

In the case of `CCC(=O)Nc1ccc2c(c1)OC[C@H](C)N(C(=O)CN1CCOCC1)C[C@H](C)[C@@H](OC)CN(C)C2=O`, the cytotoxicity call is “inactive”.

Take `C[C@@H]1CN([C@H](C)CO)C(=O)c2cccc(NC(=O)Nc3ccc(C(F)(F)F)cc3)c2O[C@H]1CN(C)S(C)(=O)=O`: the cytotoxicity call is “inactive”.

On to `COc1ccc2c3c([nH]c2c1)[C@H](CO)N(Cc1ccncc1)C[C@]13CCN(CC1)Cc1ccc(cc1)-c1ccccn1`, for which the cytotoxicity call is “inactive”.

Turning to `C[C@@H]1CN([C@H](C)CO)C(=O)c2c(c3ccccc3n2C)-c2ccccc2CO[C@@H]1CN(C)C(=O)c1ccc(F)cc1`, the cytotoxicity call is “inactive”.

In the case of `Cc1ccc(S(=O)(=O)Nc2ccc3c(c2)CC(=O)N([C@@H](C)CO)C[C@@H](C)[C@H](CN(C)S(=O)(=O)c2c(C)noc2C)O3)cc1`, the cytotoxicity call is “inactive”.

Regarding `COc1ccc(NC(=O)N(C)C[C@@H]2Oc3ccc(NC(=O)Nc4cccc5ccccc45)cc3CC(=O)N([C@H](C)CO)C[C@@H]2C)cc1`, the cytotoxicity call is “inactive”.

On to `C[C@@H]1CN([C@@H](C)CO)C(=O)c2c(c3ccccc3n2C)-c2ccccc2CO[C@@H]1CN(C)C(=O)c1ccc(F)cc1`, for which the cytotoxicity call was “inactive”.

Turning to `Cc1noc(C)c1NC(=O)Nc1ccc2c(c1)CC(=O)N([C@H](C)CO)C[C@H](C)[C@H](CN(C)C(=O)Nc1ccc(C(F)(F)F)cc1)O2`, the cytotoxicity call was “inactive”.

For the compound `Cc1noc(C)c1NC(=O)Nc1ccc2c(c1)C(=O)N([C@@H](C)CO)C[C@@H](C)[C@@H](CN(C)C(=O)Nc1ccc3c(c1)OCO3)OCCCC[C@@H](C)O2`, the cytotoxicity call is “inactive”.

For `COc1ccc(S(=O)(=O)N(C)C[C@H]2OCCCC[C@H](C)Oc3ccc(NC(=O)Nc4cccc5ccccc45)cc3C(=O)N([C@@H](C)CO)C[C@H]2C)cc1`, the cytotoxicity call was “inactive”.

As for `CC(C)=Cc1ccc(C#N)c(=S)[nH]1`, the cytotoxicity call was “inactive”.

For `C[C@@H]1CCCCO[C@@H](CN(C)C(=O)Nc2ccc(C(F)(F)F)cc2)[C@@H](C)CN([C@H](C)CO)C(=O)c2cc(NC(=O)Nc3ccc(F)cc3)ccc2O1`, the cytotoxicity call was “inactive”.

As to `Cn1c(CNc2ccccc2)cc(=O)n(C)c1=O`, the cytotoxicity call was “inactive”.

As for `NNC(=O)c1ccc(CN2CCCCC2)o1`, the cytotoxicity call was “inactive”.

With `Cc1ccc(S(=O)(=O)Nc2ccc3c(c2)CC(=O)N([C@@H](C)CO)C[C@H](C)[C@H](CN(C)S(=O)(=O)c2ccc(F)cc2)O3)cc1`, the cytotoxicity call is “inactive”.

With `CCCC#Cc1cnc2c(c1)C(=O)N([C@H](C)CO)C[C@@H](C)[C@@H](CN(C)S(=O)(=O)c1cccc(OC)c1)O2`, the cytotoxicity call is “inactive”.

`C[C@H]1CCCCO[C@@H](CN(C)Cc2ccc(C(=O)O)cc2)[C@@H](C)CN([C@@H](C)CO)C(=O)c2cc(NC(=O)Nc3cccc4ccccc34)ccc2O1`: the cytotoxicity call was “inactive”.

As to `CCCCCCCCCCCCCCCC(=O)OC(C)C`, the cytotoxicity call was “inactive”.

Regarding `C[C@H](CO)N1C[C@H](C)[C@H](CN(C)Cc2ccc(Cl)c(Cl)c2)Oc2ccc(NS(=O)(=O)c3ccc(F)cc3)cc2CC1=O`, the cytotoxicity call is “inactive”.

Source of the values: the antibiotic and cytotoxicity screens of Wong et al. (2023).
